{
  "source": "PubChem BioAssay AID1345082",
  "about": "(National Center for Advancing Translational Sciences (NCATS), 2018)",
  "note": "Among all 94,000 compounds or so, about 4,000 (4.3%) were called active. The shares of active, inactive and inconclusive entries below differ from those in the screen. Calls come from the whole dose curve; as a rule, active = well fitted inhibition curve with a large enough effect; inconclusive = small, poorly fitted or top-dose-only effect; inactive = no such curve, though single readings can be large or run the other way. Potencies beside an inconclusive call are fits to weak or partial responses and may not hold up. Potency is the fitted concentration of half-maximal effect; tags give direction and shape of the fitted curve.",
  "data": [
    {"assay": "Cytotoxic Profiling in NIH 3T3 Cell Line of Diverse Libraries Using Quantitative High-Throughput Screening; note: nearly all actives have a fitted effect of over 55% in size", "conditions": "NIH 3T3 viability, CellTiter-Glo ATP luminescence, 48-72 h; series mostly up to 96.7 µM", "outline": "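NIH 3T3 cells at 400 cells/well received 23 nL of compound by pintool and were incubated 48 or 72 h at 37 °C. Viability was read as ATP-coupled CellTiter-Glo luminescence.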", "values": [
      {"smiles": "COc1ccccc1Nc1ccnc(N2CCCC2C(=O)NCCCc2ccccc2)n1", "note": "(configuration not stated)", "Potency": "inconclusive: 50.1 µM [inhibitor, partial curve, poor fit]"},
      {"smiles": "O=C(NC[C@H]1O[C@H](Cc2cc(COc3ccccc3)on2)CC[C@@H]1O)c1ccccc1", "Potency": "inconclusive: 126 µM [inhibitor, single point]"},
      {"smiles": "CC(C)N1C(=O)C(CC(=O)NCCCN2CCCc3ccccc32)=C2CCCCC21", "note": "(configuration not stated)", "Potency": "inconclusive: 50.1 µM [inhibitor, partial curve, poor fit]"},
      {"smiles": "NS(=O)(=O)c1ccc(CNC(=O)C[C@H]2NC(=O)c3ccccc3NC2=O)cc1", "Potency": "inactive"},
      {"smiles": "CCOC(=O)[C@H]1[C@@H](O)C(=O)N(Cc2ccccc2)C12CCN(C(=O)c1ccc(Cl)cc1)CC2", "Potency": "inconclusive: 44.7 µM [inhibitor, partial curve, poor fit]"},
      {"smiles": "CCCCOC(=O)N1CCC(OC)c2ccccc2N(CC(=O)NC)C(=O)C1", "note": "(configuration not stated)", "Potency": "inconclusive: 70.8 µM [inhibitor, single point]"},
      {"smiles": "CCc1nc2c(c(-c3ccc(OC)cc3)n1)CCN(C(=O)c1ccc(C(F)(F)F)cc1)CC2", "Potency": "inactive"},
      {"smiles": "COC(=O)[C@@H]1Cc2c([nH]c3ccccc23)[C@@H]2C[C@@H](NC(C)C)C[C@@H](c3ccc(F)cc3)N12", "Potency": "active: 28.2 µM"},
      {"smiles": "O=C(NCc1ccc(Cl)cc1)c1cccn2cncc12", "Potency": "inconclusive: 50.1 µM [inhibitor, partial curve, poor fit]"},
      {"smiles": "Cc1nn(-c2ccccc2)c2c1C(C1CC1)N(C1CCN(C(=O)c3ccccc3Cl)C1)C2=O", "note": "(configuration not stated)", "Potency": "active: 22.4 µM"},
      {"smiles": "COc1cccc(-c2noc(Nc3ccc4c(c3)OCCO4)n2)c1", "Potency": "inactive"},
      {"smiles": "O=C(c1cccc(Cl)c1)N1CCC(C(=O)N2CCCC2c2nc3ccncc3[nH]2)CC1", "note": "(configuration not stated)", "Potency": "inactive"},
      {"smiles": "COc1cccc(C(=O)N2CCC(C(=O)N3CCCC3c3nc4ccncc4[nH]3)CC2)c1", "note": "(configuration not stated)", "Potency": "inactive"},
      {"smiles": "CCn1cc(CN2CCCC23CCN(c2cc(C)nc4ccccc24)CC3)c(C)n1", "Potency": "inconclusive: 50.1 µM [inhibitor, partial curve, poor fit]"},
      {"smiles": "O=C(c1nc2sccn2c1-c1cccnc1)N1CCCCC1", "Potency": "inactive"},
      {"smiles": "C[S+](=O)([O-])c1ccc(-c2cc3c(cn2)CN(CCc2ccccc2)CCN3)cc1", "Potency": "inconclusive: 56.2 µM [inhibitor, partial curve, poor fit]"},
      {"smiles": "CS(=O)(=O)N1CCC(OC2CCN(C(=O)Nc3cccc(Cl)c3)CC2)CC1", "Potency": "inconclusive: 10 µM [inhibitor, full curve, poor fit]"},
      {"smiles": "CNc1nccc(N2CCC(CC(=O)NCc3nc4ccccc4n3C)CC2)n1", "Potency": "inconclusive: 35.5 µM [inhibitor, partial curve]"},
      {"smiles": "COc1ccc(C(=O)N2CCN(Cc3ccc(=O)n(C)c3)CC2)cn1", "Potency": "inactive"},
      {"smiles": "CC(C)CCNC(=O)c1cnc2n1CCN(Cc1c[nH]c3ccccc13)CC2", "Potency": "inconclusive: 112 µM [inhibitor, single point]"},
      {"smiles": "COC(=O)C1=CN(Cc2cccc(Cl)c2)S(=O)(=O)N=C1C", "Potency": "inconclusive: 44.7 µM [inhibitor, partial curve, poor fit]"},
      {"smiles": "Cc1ccccc1C(=O)N1CCN(C(=O)c2nc3cccnc3n(C3CCCC3)c2=O)CC1", "Potency": "inconclusive: 50.1 µM [inhibitor, partial curve, poor fit]"},
      {"smiles": "COc1ccc(CCc2nc(C3CC(=O)N(c4ccc(Cl)cc4)C3)no2)cc1", "note": "(configuration not stated)", "Potency": "inconclusive: 50.1 µM [inhibitor, partial curve, poor fit]"},
      {"smiles": "O=C(c1ccc(Cl)cc1)N1CCC([C@@H]2CNC[C@H]2CO)CC1", "Potency": "inactive"},
      {"smiles": "Cc1nc(CN2Cc3nc(-c4cc5ccccc5o4)ccc3OCC2=O)cs1", "Potency": "inconclusive: 44.7 µM [inhibitor, partial curve, poor fit]"},
      {"smiles": "Cc1cccc(-c2cccc(CN3CCC(NC(=O)NC4CCCC4)CC3)c2)c1", "Potency": "inconclusive: 70.8 µM [inhibitor, partial curve, poor fit]"},
      {"smiles": "CN(C)c1ccc(CN2C[C@H](O)C[C@H]2c2nc(-c3ccncc3)no2)cc1", "Potency": "inactive"},
      {"smiles": "Cc1nn(-c2ccccc2)c2c1C(C)N(C1CCCN(C(=O)c3ccccc3Cl)C1)C2=O", "note": "(configuration not stated)", "Potency": "inconclusive: 28.2 µM [inhibitor, full curve]"},
      {"smiles": "Cc1ccc(CN2CC[C@@H]3C(=O)NCCCCCCN(Cc4ccncc4)[C@@H]3C2)o1", "Potency": "inconclusive: 50.1 µM [inhibitor, partial curve, poor fit]"},
      {"smiles": "Cc1ccc(-n2c(C3CCN(C(=O)c4ccc5c(c4)OCO5)CC3)n[nH]c2=O)cc1", "Potency": "inconclusive: 11.2 µM [inhibitor, full curve, poor fit]"},
      {"smiles": "Cc1ccc(-c2ccccc2CN2CCC(C(=O)N3CCN(c4ncccn4)CC3)CC2)cc1Cl", "Potency": "inconclusive: 44.7 µM [inhibitor, partial curve, poor fit]"},
      {"smiles": "CC1(c2ccccc2)N(Cc2ccccc2F)C(=O)OC12CCN(C(=O)CCc1ccccn1)CC2", "note": "(configuration not stated)", "Potency": "inconclusive: 50.1 µM [inhibitor, partial curve, poor fit]"},
      {"smiles": "O=C(Cc1ccc(F)cc1)N1CCC2(CC1)CCN(CCc1ccccc1)c1ccccc1O2", "Potency": "inconclusive: 39.8 µM [inhibitor, partial curve]"},
      {"smiles": "CCOc1ccccc1C(=O)N1CCC2(CC1)N=C(c1cccc(Br)c1)NO2", "Potency": "inconclusive: 50.1 µM [inhibitor, partial curve, poor fit]"},
      {"smiles": "c1ccc2c(c1)CNC1(CCN(Cc3cccc4ccccc34)CC1)CO2", "Potency": "inconclusive: 50.1 µM [inhibitor, partial curve, poor fit]"},
      {"smiles": "Cc1nc2n(c1C(=O)N1CCC[C@@H]1c1ccc(F)cc1)CCC(Nc1ccccc1)C2", "note": "(some centres not stated)", "Potency": "inconclusive: 28.2 µM [inhibitor, full curve, poor fit]"},
      {"smiles": "O=[S+]([O-])(c1cccc(C(F)(F)F)c1)N1CCCN(c2ccc3nnc(-c4ccccc4)n3n2)CC1", "Potency": "inconclusive: 50.1 µM [inhibitor, partial curve, poor fit]"},
      {"smiles": "COCCCn1c(=O)c(C(=O)N2CCN([S+](=O)([O-])c3cccc(C(F)(F)F)c3)CC2)nc2cccnc21", "Potency": "inactive"},
      {"smiles": "Cn1ncc2c(C(=O)NCc3ccccc3F)cc(-c3ccc(C(F)(F)F)cc3)nc21", "Potency": "inactive"},
      {"smiles": "Cc1ccc(-c2noc([C@@H]3CCCN3C(=O)c3ccc(Cl)cc3)n2)cc1", "Potency": "inconclusive: 56.2 µM [inhibitor, partial curve, poor fit]"},
      {"smiles": "Cc1ccncc1C(=O)N1CCC(N2C(=O)C3(CCCC3)C2c2scnc2C)CC1", "note": "(configuration not stated)", "Potency": "inactive"},
      {"smiles": "COCCNC(=O)[C@@H]1C[C@H](Oc2cccnc2)CN1S(=O)(=O)c1cccc(OC)c1", "Potency": "inactive"},
      {"smiles": "CNC(=O)CCn1ncc2cc(OC3CCc4cccc(-c5cccc(OC)c5)c43)ccc21", "note": "(configuration not stated)", "Potency": "inconclusive: 56.2 µM [inhibitor, partial curve, poor fit]"},
      {"smiles": "CC(C)Cn1c(CNC(=O)OC(C)(C)C)nc2cccnc21", "Potency": "inconclusive: 100 µM [inhibitor, partial curve, poor fit]"},
      {"smiles": "Cc1cccc(C(=O)NCc2nnc3cc(-c4nc(C5CC5)no4)ccn23)c1", "Potency": "inconclusive: 31.6 µM [inhibitor, partial curve]"},
      {"smiles": "O=C(c1ccccc1F)N1CCc2nc(C3CC3)nc(-c3ccc(O)cc3)c2CC1", "Potency": "inactive"},
      {"smiles": "Cc1ccc(-n2ncc3c2CCCC3NC(=O)c2cc(C(C)C)no2)cc1C", "note": "(configuration not stated)", "Potency": "inconclusive: 12.6 µM [inhibitor, full curve, poor fit]"},
      {"smiles": "COC(=O)c1cccc(COCC2=CC(C)(C)COc3ccc(OC)cc32)c1", "Potency": "inconclusive: 28.2 µM [inhibitor, partial curve, poor fit]"},
      {"smiles": "Cc1ccc(NC(=O)N2CCC(CCNC(=O)C3(c4ccccc4)CC3)CC2)cc1F", "Potency": "inconclusive: 39.8 µM [inhibitor, partial curve]"},
      {"smiles": "CCOc1ccc(CCCNC(=O)c2c(C)cc(C)n(C)c2=O)cc1OCC", "Potency": "inactive"},
      {"smiles": "COc1cc2cc(CN3CCC[C@@H]3CO)c(-c3cccc(Cl)c3)nc2cc1OC", "Potency": "inconclusive: 79.4 µM [inhibitor, partial curve]"},
      {"smiles": "Cn1c(CO[C@H]2CN(S(=O)(=O)Cc3ccccc3)C[C@H]2F)nc2ccccc21", "Potency": "inactive"},
      {"smiles": "Cc1ccc(CN2CCCC(c3nc(-c4cccnc4)no3)CCNC(=O)CC2)o1", "note": "(configuration not stated)", "Potency": "inconclusive: 25.1 µM [inhibitor, full curve]"},
      {"smiles": "COc1ccc(-c2noc([C@@H]3CCCN3C(=O)Cc3ccc(C)cc3)n2)cc1", "Potency": "inconclusive: 50.1 µM [inhibitor, partial curve, poor fit]"},
      {"smiles": "Cc1ccc(C(=O)N2CCC3(CC2)N(C)C(=O)CS3(=O)=O)cc1", "Potency": "inactive"},
      {"smiles": "COc1ccc(-c2ccc3nc(-c4cc5c(cc4Br)OCO5)oc3c2)c(OC)c1OC", "Potency": "inactive"},
      {"smiles": "O=C(c1nc(-c2cccc(C(F)(F)F)c2)c2ccccn12)N1CCN(c2ncccn2)CC1", "Potency": "inconclusive: 56.2 µM [inhibitor, partial curve, poor fit]"},
      {"smiles": "OC[C@@H]1CN(CCCc2ccccc2)C[C@H]1c1nc(C2CC2)no1", "Potency": "inactive"},
      {"smiles": "O=C(NCC(=O)N1CCC(Cc2ccccc2)CC1)c1cccc(-c2ccsc2)c1", "Potency": "inactive"},
      {"smiles": "Cc1nn(-c2ccccc2[N+](=O)[O-])c(C)c1[C@@H]1C=C[C@@H](NC(=O)Nc2cccc(C#N)c2)C1", "Potency": "inconclusive: 44.7 µM [inhibitor, partial curve, poor fit]"},
      {"smiles": "Fc1ccc(-c2noc([C@@H]3Cc4nc[nH]c4CN3Cc3ccccc3)n2)cc1Cl", "Potency": "active: 70.8 µM"},
      {"smiles": "CCCCn1c(=O)c(C(=O)N2CCN(C(=O)c3ccc(C(F)(F)F)cc3)CC2)nc2cccnc21", "Potency": "inconclusive: 50.1 µM [inhibitor, partial curve, poor fit]"}
    ]}
  ]
}
